Changes are numbered by the printed parent chain. Numbers in names are those of the source.
B1: CD80_184-Fc, variant CD80 IgV-Fc V11Y/A26Q/M47L/A71G/Y87R (Fc fusion)
chain: VIHVTKEVKEYATLSCGHNVSVEELQQTRIYWQKEKKMVLTMMSGDLNIWPEYKNRTIFDITNNLSIVILGLRPSDEGTYECVVLKREKDAFKREHLAEVTLSVKADGSGGGGS[omitted - human IgG4 Fc with S228P (EU numbers)]
notes: variant IgV - GSGGGGS - human IgG4 Fc (S228P)
B2: CD80_209-Fc, variant CD80 IgV-Fc V11Y/T28R/E35G/M47L/F59S (Fc fusion)
chain: B1 chain with Q26A, T28R, E35G, F59S, G71A, R87Y
notes: variant IgV - GSGGGGS - human IgG4 Fc (S228P); also called H5890
B3: CD80_208-Fc, variant CD80 IgV-Fc V11Y/E35G/M42G/F59S (Fc fusion)
chain: B1 chain with Q26A, E35G, M42G, L47M, F59S, G71A, R87Y
notes: as for B1
B4: CD80_206-Fc, variant CD80 IgV-Fc E10G/H18T/Q27T/D46E/M47L (Fc fusion)
chain: B1 chain with E10G, Y11V, H18T, Q26A, Q27T, D46E, G71A, R87Y
notes: as for B1
B5: CD80_210-Fc, variant CD80 IgV-Fc E7N/E35D/F59S (Fc fusion)
chain: B1 chain with E7N, Y11V, Q26A, E35D, L47M, F59S, G71A, R87Y
notes: as for B1
B6: CD80_197-Fc, variant CD80 IgV-Fc V11Y/E35D/Y87Q/T101R (Fc fusion)
chain: B1 chain with Q26A, E35D, L47M, G71A, R87Q, T101R
notes: as for B1
B7: CD80_186-Fc, variant CD80 IgV-Fc E7K/V11W/N63H/A71G/Y87K (Fc fusion)
chain: B1 chain with E7K, Y11W, Q26A, L47M, N63H, R87K
notes: as for B1
B8: CD80_202-Fc, variant CD80 IgV-Fc E7H/H18L/V20I/T28Y/D46S/A71G (Fc fusion)
chain: B1 chain with E7H, Y11V, H18L, V20I, Q26A, T28Y, D46S, L47M, R87Y
notes: as for B1
B9: CD80_203-Fc, variant CD80 IgV-Fc K9N/E10A/V11W/H18F/T28H/M47L/T62E/R73D (Fc fusion)
chain: B1 chain with K9N, E10A, Y11W, H18F, Q26A, T28H, T62E, G71A, R73D, R87Y
notes: as for B1
B10: CD80_198-Fc, variant CD80 IgV-Fc H18Y/A26E/R29S/E35D/M47L/V68M/A71G/E77G/D90G (Fc fusion)
chain: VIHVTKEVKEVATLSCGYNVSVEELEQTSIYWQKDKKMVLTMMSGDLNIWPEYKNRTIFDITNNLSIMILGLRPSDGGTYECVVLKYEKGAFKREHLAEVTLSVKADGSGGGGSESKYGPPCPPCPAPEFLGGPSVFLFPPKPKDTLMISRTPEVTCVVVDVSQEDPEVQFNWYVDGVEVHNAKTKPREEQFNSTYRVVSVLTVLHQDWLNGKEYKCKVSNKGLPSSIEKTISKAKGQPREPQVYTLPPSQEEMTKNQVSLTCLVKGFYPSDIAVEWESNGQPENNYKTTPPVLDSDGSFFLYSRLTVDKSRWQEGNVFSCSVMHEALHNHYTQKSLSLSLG
notes: as for B1
B11: CD80_207-Fc, variant CD80 IgV-Fc E35D/V68T/T101K (Fc fusion)
chain: B1 chain with Y11V, Q26A, E35D, L47M, V68T, G71A, R87Y, T101K
notes: as for B1
B12: CD80_189-Fc, variant CD80 IgV-Fc E10G/V11W/M47V/L85E (Fc fusion)
chain: B1 chain with E10G, Y11W, Q26A, L47V, G71A, L85E, R87Y
notes: as for B1
B13: CD80_212-Fc, variant CD80 IgV-Fc K9R/E10A/E35G/V68T/T101K (Fc fusion)
chain: B1 chain with K9R, E10A, Y11V, Q26A, E35G, L47M, V68T, G71A, R87Y, T101K
notes: as for B1
B14: CD80_190-Fc, variant CD80 IgV-Fc T28Y/M47L (Fc fusion)
chain: B1 chain with Y11V, Q26A, T28Y, G71A, R87Y
notes: as for B1
B15: CD80_191-Fc, variant CD80 IgV-Fc V11Y/T28Y/M47L/V68L/L85E (Fc fusion)
chain: B1 chain with Q26A, T28Y, V68L, G71A, L85E, R87Y
notes: as for B1
B16: CD80_204-Fc, variant CD80 IgV-Fc H18V/V20I/T28Y/E35G/M47V/R73E (Fc fusion)
chain: B1 chain with Y11V, H18V, V20I, Q26A, T28Y, E35G, L47V, G71A, R73E, R87Y
notes: as for B1
B17: CD80_205-Fc, variant CD80 IgV-Fc E10G/D46K/L85E (Fc fusion)
chain: B1 chain with E10G, Y11V, Q26A, D46K, L47M, G71A, L85E, R87Y
notes: as for B1
B18: CD80_193-Fc, variant CD80 IgV-Fc V11Y/M42W/T62A/L85E (Fc fusion)
chain: B1 chain with Q26A, M42W, L47M, T62A, G71A, L85E, R87Y
notes: as for B1
B19: CD80_192-Fc, variant CD80 IgV-Fc E7N/E35D/T101R (Fc fusion)
chain: B1 chain with E7N, Y11V, Q26A, E35D, L47M, G71A, R87Y, T101R
notes: as for B1
B20: CD80_200-Fc, variant CD80 IgV-Fc K9N/E10R/H18V/T28Y/A71G (Fc fusion)
chain: B1 chain with K9N, E10R, Y11V, H18V, Q26A, T28Y, L47M, R87Y
notes: as for B1
B21: CD80_199-Fc, variant CD80 IgV-Fc E10G/H18Y (Fc fusion)
chain: B1 chain with E10G, Y11V, H18Y, Q26A, L47M, G71A, R87Y
notes: as for B1
B22: CD80_187-Fc, variant CD80 IgV-Fc V11Y/H18Y/E35G/L85Q (Fc fusion)
chain: B1 chain with H18Y, Q26A, E35G, L47M, G71A, L85Q, R87Y
notes: as for B1
B23: CD80_211-Fc, variant CD80 IgV-Fc V11Y/T28R/E35G/M47L/A71G (Fc fusion)
chain: B1 chain with Q26A, T28R, E35G, R87Y
notes: as for B1

biological target: T1, human CD28 (endogenously expressed on primary human T cells) (human, UniProt P10747 19-220); assay: flow cytometry, primary human T cells
T1 construct: whole, on cells
Method: Binding affinity to CD28 was determined using primary human T cells which endogenously express CD28. Binding to PD-L1 was determined using SCC152 cells transduced with human PD-L1. Binding to CTLA-4 was measured using Chinese hamster ovary (CHO) cells stably transduced to express human CTLA-4.
For staining and analysis by flow cytometry, 75,000 human T cells, SCC152/PD-L1 cells, or CHO/CTLA-4 cells were plated in 96-well round-bottom plates. Cells were spun down and resuspended in staining buffer (PBS (phosphate buffered saline), 1% BSA (bovine serum albumin), 1 mM EDTA, and 0.1% sodium azide) for 20 minutes to block non-specific binding. Afterwards, cells were centrifuged, stain buffer aspirated, and then resuspended in 50 μL of a 1:5 serial dilution of each CD80-Fc candidate variant starting at 100 nM ending at 0.8 nM. Primary staining was performed on ice for 60 minutes, before washing cells in […] staining buffer three times. PE-conjugated anti-human Fc (Jackson ImmunoResearch, USA) was diluted 1:250 in 50 μL staining buffer and added to cells and incubated another 30 minutes at 4° C. Cells were washed two times in 150 μL stain buffer and then fixed in 2% formaldehyde/PBS for 5 minutes at room temperature. Samples were analyzed CytoFLEX LX flow cytometer (Beckman Coulter, USA). Median Fluorescence Intensity (MFI) was calculated for each cell type using the CytExpert software from Beckman Coulter.

Binder	MFI (anti-human Fc) at 0.8 nM [MFI]	MFI (anti-human Fc) at 4 nM [MFI]	MFI (anti-human Fc) at 20 nM [MFI]	MFI (anti-human Fc) at 100 nM [MFI]	fold change of MFI vs WT CD80 at 20 nM [fold]
B1	556	1190	2210	2780	12.3
B2	188	193	231	357	1.3
B3	235	283	387	708	2.1
B4	342	565	1210	1580	6.7
B5	182	184	203	258	1.1
B6	218	293	699	1550	3.9
B7	183	220	298	446	1.7
B8	226	252	387	810	2.1
B9	269	341	550	993	3.1
B10	186	197	195	205	1.1
B11	352	661	1100	1430	6.1
B12	197	201	175	192	1
B13	244	380	639	799	3.5
B14	359	600	1030	1570	5.7
B15	268	302	401	543	2.2
B16	289	457	971	2110	5.4
B17	233	265	299	431	1.7
B18	236	249	267	276	1.5
B19	277	295	423	640	2.3
B20	198	268	372	497	2.1
B21	222	310	493	738	2.7
B22	174	175	188	205	1
B23	188	229	309	430	1.7
